# From the supplement of paper PMC11417369
# ± gives the standard deviation of the averaged measurements. Some of the results follow.
# Tested on: PfAP2-I AP2 domain 3 (GST-tagged)
# Experiment: gcPBM binding intensity (ln(normalized median fluorescence intensity)); higher = stronger DNA binding
# How it was run: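 Each value is the highest Masliner-normalised natural-log median intensity across replicate spots of either orientation of a probe. The probes were primer-extended double-stranded 36-bp intergenic genomic sequences on an Agilent 4 × 180k array, alongside negative controls, exposed for 1 h to GST-tagged P. falciparum DNA-binding domains expressed in E. coli. Bound protein was picked up with Alexa488 anti-GST antibody and scanned at 488 nm.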
row,Sequence,gcPBM binding intensity (ln)
1,CCACTGTATGAATGCACACATTCATAGAATTGCTAT [CACACA_site2676],9.5 ± 0.099
2,GATGATTCAATTTATGCACACTAAAAATTAATTATA [CACACA_site4308],9.86 ± 0.44
3,CCATAGATATTTTATACACACATATAATATATTAAT [CACACA_site373],7.68 ± 0.55
4,ATAATCTGACAAATGTGTACACATATATATATATAT [XGTACX_site2379],9.45 ± 0.51
5,AAATAATATATTCCTTGTACTTATTTCAATGAATTC [XGTACX_site7719],7.7 ± 0.47
6,ACCAAAAGGGGATGTAGTACAATATGATTAGAAGAA [XGTACX_site3773],8.04 ± 0.49
7,AAAATACCCGGACACACACACATATATATATATATT [CACACA_site6137],8.16 ± 0.49
8,TAACTTCAAACAAAATATGGTAAAAGTGGTTGAAAA [CACACA_negctrl_site42],7.88 ± 0.73
9,TAAAGAGTCATGTGGTGTACCTGCTTCACCACATAT [XGTACX_site1288],7.7 ± 0.42
10,TTATTTTTAATATCGGTGCAACAAAAAGGAAAAGAT [GTGCAC_site9482],10.4 ± 0.28
11,TATATATTCATAAAGTGTACATGTTTATATATATAT [XGTACX_site7585],8.975 ± 0.021
12,TATGTATAGATATATACACACTTCTGTGATACGAAA [CACACA_site7003],7.54 ± 0.59
13,ATATGTACATATCTCATGCACTTAACAAAAAAAAAG [GTGCAC_site9898],8.88 ± 0.18
14,TTATTCTACATATATGCATGTGTATGATCTGTTTAT [TGCATGCA_site782],7.79 ± 0.45
15,CATATATACCTATATACACACATATAGATTTATATA [CACACA_site6451],7.61 ± 0.44
16,TGATATTATCTCTTCACACACTCACATACAGACAAA [CACACA_site1246],7.84 ± 0.52
17,AAAATAAAAAAAATGTAAAAGGTTAAAGTGAAATAT [CACACA_negctrl_site350],7.96 ± 0.71
18,ATATAAATGATATGTACACACATTTATATATATAAA [CACACA_site3475],7.86 ± 0.43
19,ATTTATTTATATACAAGTACATAAAAAATTAACTTA [XGTACX_site6170],7.695 ± 0.049
20,TATTTGATAAAAAAAAGTACTAGAATTTCGCTTTTG [XGTACX_site7754],7.32 ± 0.37
21,TAAAAATTAAAATGTTGTACAATGATAAAATATTAT [XGTACX_site7874],7.95 ± 0.45
22,TAAATTGAAATATATTGTACATTATCAACTAAGGGA [XGTACX_site1635],7.66 ± 0.37

row,Sequence,gcPBM binding intensity (ln)
1,CTCAACATATACGTAACACACATATAAATATAAATA [CACACA_site7749],7.95 ± 0.38
2,AAATTATAAAATAACTGTACCAATCCTTTTTTTTTA [XGTACX_site2229],7.46 ± 0.63
3,TGTAGTCTGGAGAAAAGTACATAGTATCTGGTAACA [XGTACX_site4940],7.93 ± 0.42
4,TTTTAATTTTAAAAATGTACTTTTATTATTTTTAAT [XGTACX_site8300],7.63 ± 0.42
5,AATCTAATATAATGCACACATAAAAAAAAATCAAAC [CACACA_site3633],11.1 ± 0.94
6,TATTATATGTAGTTGAGTACATATAAATACATATAT [XGTACX_site7933],7.78 ± 0.34
7,AAATAGTTAAAAAGGCGTACACATAAATAAATAAAT [XGTACX_site2096],8.59 ± 0.33
8,GTATATATATATATATATATAATAGTAACTTTTACT [CACACA_negctrl_site608],8.16 ± 0.4
9,ATGAATAAAAAAGGTGGTACATATATATATATATAT [XGTACX_site7893],9.47 ± 0.26
10,ATACATATATAATTATGTACGTATATTTTATATAAC [XGTACX_site4292],7.89 ± 0.18
11,AAAATAATATAAATAATATAAGTGAGCATATATATA [TGCATGCA_negctrl_site527],7.92 ± 0.72
12,TGTCTTGTAAATTATTGTACTATTTAAAGTATAAAA [XGTACX_site7863],7.71 ± 0.3
13,CATATAGATTTGTTCACACACACACTAAAAAAAAAA [CACACA_site7212],8.08 ± 0.48
14,ATATTCAATTCATACACACACAATTTAAGAATGATA [CACACA_site3883],7.66 ± 0.56
15,AATAAAATTTGCGATGCACACAGAATAGCTAATATG [CACACA_site8983],7.96 ± 0.57
16,TTATTTTACTTTTATGCAACTAAAAATATTGCTATA [XGTACX_negctrl_site277],8.45 ± 0.17
17,ACAAATGTGAGAAAGACACACATATAATAAAAAACA [CACACA_site1156],7.71 ± 0.56
18,TACAGACATACATACACACATACATACAGACATACA [CACACA_site1941],7.83 ± 0.39
19,CACACGCACGAACACACACACACACGCACGCACATA [CACACA_site6305],8.61 ± 0.23
20,TATATTTAATTATTTTGTACTCATATAAAGATGATG [XGTACX_site5488],7.62 ± 0.32
21,AAAAAAAAAATATTTGAACACACGAGGATATATAAA [CACACA_site139],7.82 ± 0.89
22,TACATATTTACTATCACACACACGATATAAATAAAT [CACACA_site6701],7.8 ± 0.42

row,Sequence,gcPBM binding intensity (ln)
1,TATTTAATGTGATACTTATATTATTTTATGATTAAA [GTGCAC_negctrl_site25],7.47 ± 0.42
2,TATACATACTCACCCACACACAAAAAAAAAAAAAAA [CACACA_site862],8.08 ± 0.4
3,TATATAAGAATTTTTACACACATGAAAATGTAGATA [CACACA_site3735],7.46 ± 0.36
4,ATAATATATATATTAACACACATCCTTTTATGTATA [CACACA_site1203],7.87 ± 0.44
5,TTATAATAATTTTATGCACACAGAAAAATACAAGGT [CACACA_site9169],9.66 ± 0.085
6,GAACCGTGCAAATGTTGTACACTTTAAAAATATTCT [XGTACX_site4488],9.96 ± 0.3
7,ATATGTGTGTAGTGTTCAATTATATTGATGTGAAGG [TGCATGCA_negctrl_site462],8.12 ± 0.48
8,AAAACGAAAATTTGGAAACCAAAGGAAAAACATAAT [GTGCAC_negctrl_site709],7.97 ± 0.81
9,TACATATAGAAACACACACACATATATATATATATA [CACACA_site1300],9.47 ± 0.72
10,TAGGAGCCTAGACACACACACAAAAAAAAAAAAAAA [CACACA_site6911],7.8 ± 0.62
11,AAAAAGGTTATTGGTACACACATATGTATATATATA [CACACA_site552],8.93 ± 0.35
12,CCTCCATTAGATACTTGTACATAAAAGTTTTGATTG [XGTACX_site7428],7.68 ± 0.37
13,AATCATAAAATCATATGTACACATTTTTCCTATGAT [XGTACX_site8799],7.89 ± 0.4
14,AGACTTTGTACAAACACACACATGAACACAATATTA [CACACA_site1360],8.07 ± 0.47
15,AAAAAAAAAAAATAATAAATAAATAAAAATAAATGA [CACACA_negctrl_site1623],7.5 ± 0.38
16,ATTTTATTAATTTGGTGTACTTAATTTATATTTTTC [XGTACX_site4947],7.88 ± 0.22
17,ATGTTGCTCATATGAGTGCACGTTTCATTTCAGTTT [GTGCAC_site9865],10.1 ± 0.11
18,GTGTATTTATGTTATACACACAAAAATATTTTGTAT [CACACA_site4305],8.12 ± 0.4
19,AATGTAGGTTTATTTACACACAAATATAGATATATA [CACACA_site6825],7.58 ± 0.53
20,ATATTTAAAAAAGAGTGTACTCATCTCTTTTAAAAA [XGTACX_site1160],7.5 ± 0.4
21,AATTTATATAATTTTGTGCACAATATTCATGTATAT,11 ± 0.14
22,CTATTTCGTATATATAGTACATATTATAACATACTA [XGTACX_site978],8.12 ± 0.42

row,Sequence,gcPBM binding intensity (ln)
1,ACAAAATAAAAACACACACACAAACACAAAAAAATA [CACACA_site3390],7.99 ± 0.042
2,AGAAGGTAAAAACACACACACACATACAAAAAAAAA [CACACA_site3767],8.28 ± 0.53
3,TATATATACAGACACATACACACAAATAAAAAAACA [CACACA_site3413],7.86 ± 0.35
4,AGCTCTTGTCATTTTGCACACACACCGGTATAGGTT [CACACA_site5654],9.63 ± 0.18
5,ATAATTTATATCATTACACACATTTTTTATATTTTT [CACACA_site3450],7.74 ± 0.64
6,TTTTTGAATGTTTGCACACAAATCTCATAATTTTAG [CACACA_site357],8.64 ± 0.33
7,TAGTTACATAAAATATGTACGTATAATTTTTTTATT [XGTACX_site3847],7.67 ± 0.32
8,TTTATTAAATATATATGTACATATCAAAATGTATAA [XGTACX_site3181],7.89 ± 0.35
9,TTTTTTTTCTATTGAGCACACATATCACGATTAGTA [CACACA_site7992],8.44 ± 0.45
10,GTTAAACATCTTCTGTGATATGTTAGAATATTATTT [CACACA_negctrl_site687],7.45 ± 0.62
11,TATTTCACAAACCTTACATGCGGTTTATTTATATAT [TGCATGCA_site123],7.92 ± 0.6
12,TGTTCTAATATTTGTTGTACGTTTACGTTTCTCTCT [XGTACX_site18],7.58 ± 0.47
13,AACATTTTAAAATAATGTACTTGAAAAAAAAACTAC [XGTACX_site8894],7.99 ± 0.51
14,TATTTAAGAGTATGAACACACATCATACCCATATAA [CACACA_site5911],7.5 ± 0.45
15,CATATAAATAAATATACATGCATACATACATATATA [TGCATGCA_site713],7.75 ± 0.54
16,TTAATTTATGTTAATGGTACGTAAATGCATTTATTT [XGTACX_site3002],7.89 ± 0.4
17,ATTTAACCAAATAATATATTTAAAAAATAGTCACAT [CACACA_negctrl_site274],7.71 ± 0.56
18,TTTTATAATTTGAGAACATGCAACATAAATATAAAG [TGCATGCA_site965],8.21 ± 0.59
19,TATAATATATGAAAAAGTACAAATATTTCGATGGTC [XGTACX_site129],8 ± 0.7
20,TAACCAAAAAAAAATATTTAAAATAAATATATATAT [CACACA_negctrl_site1516],9.05 ± 0.33
21,ATAACATACATAACAACACACAATATTTATAGGTAT [CACACA_site6243],7.84 ± 0.57
22,TATTTTCTCTTAAAAAGTACTCATATATACATTTAT [XGTACX_site7748],7.68 ± 0.3
